Experimental data taken from article PMC6212790.
The list shows a part of the results. At the low end of the ranking the order means little.

These sequences were tested against T1, GST-Rok (full length) (UniProt O34857) (assay: protein binding microarray). Settings: Rok is a gene silencer of Bacillus subtilis; high values mean tight binding; most listed sequences are background and not binding sites; double strand, one strand shown.
T1 sequence: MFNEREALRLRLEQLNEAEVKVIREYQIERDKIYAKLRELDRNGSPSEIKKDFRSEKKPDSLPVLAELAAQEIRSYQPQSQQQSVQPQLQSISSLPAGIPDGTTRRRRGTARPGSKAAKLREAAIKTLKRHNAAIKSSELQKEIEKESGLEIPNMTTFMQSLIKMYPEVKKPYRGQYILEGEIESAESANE
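Also: rank score from −0.5 (least bound) to 0.5 (best bound).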

Row | Sequence | binding signal [E-score]
1 | ACGGCCAC | -0.322
2 | CCAGATTC | -0.0638
3 | CGACTGTA | 0.131
4 | CGCGACAG | 0.0354
5 | ATAAGACG | -0.0152
6 | ACACTCGG | 0.0686
7 | AGTTGTCG | 0.0774
8 | CAGATTTA | 0.226
9 | CAACGTCG | 0.0704
10 | TTACAAAA | -0.00568
11 | TAGCTTCA | 0.13
12 | ACTTCGTG | 0.00998
13 | CGCGTGAG | -0.176
14 | GACCGTGA | -0.136
15 | AAAGAGCG | -0.0664
16 | ACAACCTG | 0.016
17 | GCTTTCAC | 0.0622
18 | CATTTGGA | -0.0049
19 | AGTGTTCC | -0.101
20 | AGAACGTA | 0.121
21 | AACCCCCG | -0.336
22 | ATCTTGAC | 0.0686
23 | ATAGCCGC | 0.0244
24 | CAAAGACG | -0.0713
25 | CGGCGCCG | -0.234

Row | Sequence | binding signal [E-score]
26 | GACATTAA | 0.00348
27 | AGGTCGGC | -0.248
28 | CGGTGACG | -0.171
29 | ACTCCGGA | -0.0444
30 | ACGGACGT | -0.114
31 | AACAATGA | 0.126
32 | AGGTTATA | 0.0945
33 | GAGGGAGC | -0.36
34 | ATCACAAA | 0.225
35 | CGAAGTTC | 0.0046
36 | AGACTTGA | -0.116
37 | CCGTGTAA | 0.0877
38 | CTGCAGTA | 0.221
39 | GTATTAAA | 0.109
40 | CCAGTGCC | -0.167
41 | AGTTCGCC | 0.151
42 | AGTAACAG | 0.185
43 | AAAACGTA | 0.269
44 | ACGCCCGG | -0.344
45 | CAAGCCGG | -0.305
46 | ACCGACGT | -0.0735
47 | GGAGAGGA | -0.315
48 | CGTGAAAC | -0.112
49 | CAGCTCCA | -0.182
50 | ACCACTAG | 0.0844

Row | Sequence | binding signal [E-score]
51 | CGGTCTCA | -0.0583
52 | ACTGGCGA | -0.0516
53 | CCAGTGTC | -0.227
54 | CAATTCCG | -0.0331
55 | AATTTACT | 0.384
56 | GTCGTGGA | 0.00574
57 | ACGATTTC | 0.0369
58 | CACCGTTC | -0.0705
59 | CCCAAACG | 0.051
60 | CGCCTTGC | -0.395
61 | GGTACTTA | 0.143
62 | CGATATCC | 0.111
63 | CATAACGC | 0.138
64 | GACTCTTA | -0.104
65 | AGGTGAGA | -0.127
66 | ATTGGTCG | 0.0283
67 | CCGCTCAG | -0.0853
68 | GCGAACGA | -0.127
69 | ACACGACG | 0.0831
70 | GCCGGGCA | -0.369
71 | TGGCCCCA | -0.241
72 | CTCCAACA | -0.0396
73 | ATTATCTC | -0.0512
74 | ATGTGTCA | 0.112
75 | ATCGGTTC | -0.00135

Row | Sequence | binding signal [E-score]
76 | CTATAAAG | 0.14
77 | ACCCGTGA | -0.212
78 | CGGAGTGC | -0.265
79 | AAGTCGGT | 0.147
80 | CAGCGGTA | 0.166
81 | ACCAGTCC | -0.115
82 | ACACGTAC | -0.02
83 | GGCGTAAC | -0.129
84 | ACCATCCC | 0.138
85 | CCTAAGAA | -0.00097
86 | AGCCCATA | -0.099
87 | CTCTGCAA | -0.0816
88 | ACCTCGAT | 0.143
89 | AGTGTAAA | 0.307
90 | CCGAAACA | -0.00129
91 | CGGGAAGC | -0.0863
92 | CGCATACC | -0.0972
93 | CCAAGCAC | -0.214
94 | CTCTGGGA | -0.154
95 | AAAGCGGC | -0.226
96 | CCTCCGCA | -0.255
97 | GTCGCGAA | -0.0961
98 | GTCGTAAA | 0.0437
99 | AGTATGAC | 0.101
100 | ATTAACGC | 0.0477

Row | Sequence | binding signal [E-score]
101 | AGGAAGAA | -0.0233
102 | CGAAATCC | -0.128
103 | AGCAGATC | 0.0918
104 | GGATAAAC | 0.0587
105 | CGTGTGTC | -0.1
106 | CAGTACAA | 0.265
107 | ATAGAAAG | 0.303
108 | CGGAATCC | -0.195
109 | ACCACTCC | -0.0152
110 | CACTGCGG | -0.232
111 | ATTAACGG | 0.0398
112 | TAGTGTCA | 0.138
113 | AAAGGAGA | -0.151
114 | CATTCTAG | 0.259
115 | AGTAATTA | 0.381
116 | AAATAATA | 0.312
117 | TGCTGACA | -0.163
118 | AGTACCGA | 0.279
119 | AAGTTCCA | -0.0441
120 | AATCAAAC | 0.143
121 | GACCATGC | -0.239
122 | AAGCGTAA | -0.0183
123 | GAATCCTC | -0.148
124 | CCTTTAGC | -0.103
125 | GCTTGCAC | -0.141

Row | Sequence | binding signal [E-score]
126 | ACATGCCG | -0.101
127 | AACAGAAA | 0.133
128 | CCGTGCCG | -0.181
129 | CCCGCCGC | -0.444
130 | CTAAGATC | -0.0713
131 | AGCACGAG | -0.172
132 | ATCATCAC | 0.11
133 | GCGTTTAC | -0.00863
134 | AAAGCATA | 0.0447
135 | AAAGAGGT | 0.0872
136 | TAGTTCCA | 0.173
137 | ATTTCCTA | 0.176
138 | GCCAAGCA | -0.294
139 | AAATGCGC | 0.0529
140 | AATCCCGA | -0.0151
141 | ACGCATAC | 0.0406
142 | ATGGTTAC | -0.167
143 | AACTATAA | 0.326
144 | GTGCGTCA | -0.13
145 | CGGCAGAA | 0.0508
146 | GGCCTGAA | -0.334
147 | CCGGCGCG | -0.342
148 | ACTACCCG | -0.156
149 | CTGGAACC | -0.123
150 | AAGCATAG | 0.0143

Row | Sequence | binding signal [E-score]
151 | CTTATCGA | 0.0539
152 | CCTCAACA | -0.105
153 | CTCTGTAC | 0.036
154 | GCTCTACA | -0.114
155 | TTCACAAA | -0.00818
156 | AAGTCACG | -0.187
157 | ACAACGAA | 0.101
158 | CGTTGGGC | -0.313
159 | AAAGATCC | 0.00787
160 | CAGATCCG | 0.0157
161 | CGGAAGTA | 0.205
162 | ACGATTGC | -0.0759
163 | GATCTGCA | 0.222
164 | AAAGCCAT | -0.188
165 | CCAGGGGG | -0.413
166 | ACGGCCAG | -0.189
167 | ATTTCATA | 0.2
168 | TCATAGGA | 0.105
169 | ACTTGGCA | -0.0171
170 | CCCCTGTA | -0.15
171 | AATCTGCT | -0.197
172 | AGCCGTAA | 0.0716
173 | AGGTGAGC | -0.0616
174 | AAGGAATC | -0.0168
175 | ATTCTCGC | 0.0188

Row | Sequence | binding signal [E-score]
176 | CGAGAGTC | -0.165
177 | ATAAATGG | 0.129
178 | ACGTACAT | 0.236
179 | GTTACTTA | 0.243
180 | GCACTGAC | 0.0223
181 | AGTCGTTC | -0.114
182 | AAGGCGGT | -0.0994
183 | CGCAGACC | -0.216
184 | CCTTGAGC | -0.274
185 | AAGCAGCG | -0.0481
186 | AGCAAGAT | -0.0176
187 | AATTCGCC | 0.0442
188 | ATCCGACA | 0.0482
189 | AAATTTTA | 0.285
190 | ACTCGCGA | 0.00126
191 | AGGTATTA | 0.21
192 | AATGCGAG | 0.132
193 | TCAGGGCA | -0.135
194 | AAAGAGAT | 0.0211
195 | CGTGAGTC | -0.21
196 | ATCATGGG | -0.141
197 | TACCCCAA | -0.0214
198 | CGCGCGAC | 0.0395
199 | GATATTAC | 0.364
200 | CATGGTGA | 0.0117

Row | Sequence | binding signal [E-score]
201 | CTCGTAAC | -0.0505
202 | ACCACCGT | -0.0469
203 | ACACTGTG | 0.143
204 | TACTCGGA | -0.103
205 | AGTTGGGG | -0.169
206 | AAGACTCC | -0.131
207 | AAGCTCAG | -0.1
208 | AAACCCAA | 0.0502
209 | GAAGGCCC | -0.477
210 | ATGGCCGC | -0.381
211 | TCCGCGGA | -0.14
212 | AAATTGAT | 0.0562
213 | AGTGCCAA | 0.0622
214 | CCCCGAAC | -0.366
215 | GTCTCCAA | -0.187
216 | CTTCGCAA | -0.114
217 | AGCGATAG | -0.0213
218 | TCTTCAAA | 0.0644
219 | AGCCGTAG | 0.0323
